# Assay results reported in patent US20170327588A1 (AstraZeneca / MedImmune, published 2017).
# T1: rhGITR (hIgG1 Fc) (human, UniProt Q9Y5U5 26-161)
# T1 construct: Bought from R&D Systems; also called recombinant human GITR Fc chimera; not shown: human IgG1 Fc
# T1 sequence (looked up): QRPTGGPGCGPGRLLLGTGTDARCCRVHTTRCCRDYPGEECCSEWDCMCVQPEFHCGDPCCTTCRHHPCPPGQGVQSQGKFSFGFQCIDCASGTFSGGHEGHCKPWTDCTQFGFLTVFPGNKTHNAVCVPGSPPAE
# T2: rhOX40 (hIgG1 Fc) (human, UniProt P43489 29-216)
# T2 construct: Bought from R&D Systems; also called recombinant human OX40 Fc chimera; not shown: human IgG1 Fc
# T2 sequence (looked up): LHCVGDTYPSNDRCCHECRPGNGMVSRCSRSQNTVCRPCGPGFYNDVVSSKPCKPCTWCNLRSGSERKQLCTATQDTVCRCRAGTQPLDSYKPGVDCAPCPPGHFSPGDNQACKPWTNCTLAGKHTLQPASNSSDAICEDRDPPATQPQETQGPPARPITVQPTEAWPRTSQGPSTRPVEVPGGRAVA
# Columns and labels:
# rhTRAIL = target: T3, rhTRAIL (human, UniProt P50591 114-281, limits assumed); assay: ELISA, rhTRAIL coated at 5 ug/mL, FP6 detected with anti-human IgG4-HRP
# T3 construct: It is not clear whether a TRAIL receptor was meant; also called recombinant human TRAIL (no Fc component)
# human CD40 on cells [1] = target: T4, human CD40 on cells (human, UniProt P25942 21-277); assay: cell-based or functional assay
# rhGITR (hIgG1 Fc) = target: T1, rhGITR (hIgG1 Fc); assay: ELISA, receptor coated at 5 ug/mL, FP6 detected with anti-human IgG4-HRP
# rhOX40 (hIgG1 Fc) = target: T2, rhOX40 (hIgG1 Fc); assay: as above
# human CD40 on cells [2] = target: T4, human CD40 on cells; assay: cell-based or functional assay; remark: listed apart in the source
# human CD40 on cells [3] = target: T4, human CD40 on cells; assay: cell-based or functional assay; remark: listed apart in the source
# human CD40 on cells [4] = target: T4, human CD40 on cells; assay: cell-based or functional assay; remark: listed apart in the source
# T4 sequence (P25942 21-277 limits assumed): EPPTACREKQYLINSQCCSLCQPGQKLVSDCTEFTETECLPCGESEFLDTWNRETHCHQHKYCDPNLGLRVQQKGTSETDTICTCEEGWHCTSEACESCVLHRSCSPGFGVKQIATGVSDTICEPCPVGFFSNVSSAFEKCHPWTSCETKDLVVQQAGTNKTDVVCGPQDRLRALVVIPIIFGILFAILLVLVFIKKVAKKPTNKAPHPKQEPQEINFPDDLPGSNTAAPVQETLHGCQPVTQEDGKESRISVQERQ
# rhTRAIL, sequence (P50591 114-281 limits assumed): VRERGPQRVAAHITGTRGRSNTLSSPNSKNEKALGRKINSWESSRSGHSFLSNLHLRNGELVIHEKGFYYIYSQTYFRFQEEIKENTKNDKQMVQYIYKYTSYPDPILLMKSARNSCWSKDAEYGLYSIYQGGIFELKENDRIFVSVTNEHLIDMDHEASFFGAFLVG
binder,measurement,setting,value
"scCD40L-IgG4P-FP6 (MEDI5083) (Fc fusion, also called FP6 C194W; FP6 CD40L fusion protein) NPQIAAHVISEASSKTTSVLQWAEKGYYTMSNNLVTLENGKQLTVKRQGLYYIYAQVTFCSNREASSQAPFIASLWLKSPGRFERILLRAANTHSSAKPCGQQSIHLGGVFELQPGASVFVNVTDPSQVSHGTGFTSFGLLKLGGGGSGGGSQIAAHVISEASSKTTSVLQWAEKGYYTMSNNLVTLENGKQLTVKRQGLYYIYAQVTFCSNREASSQAPFIASLWLKSPGRFERILLRAANTHSSAKPCGQQSIHLGGVFELQPGASVFVNVTDPSQVSHGTGFTSFGLLKLGGGGSGGGSQIAAHVISEASSKTTSVLQWAEKGYYTMSNNLVTLENGKQLTVKRQGLYYIYAQVTFCSNREASSQAPFIASLWLKSPGRFERILLRAANTHSSAKPCGQQSIHLGGVFELQPGASVFVNVTDPSQVSHGTGFTSFGLLKLGGGGSGGGGSGGGGS[human IgG4 Fc with S228P (EU numbers) not given here]",binding result,rhTRAIL,no binding (tested: 20 nM)
same,"EC50 (nM), CD80 surface marker on human MoDC (FACS)",human CD40 on cells [1],0.813 nM
same,"EC50 (nM), CD83 surface marker on human MoDC (FACS)",human CD40 on cells [1],0.234 nM
same,"EC50 (nM), CD86 surface marker on human MoDC (FACS)",human CD40 on cells [1],0.447 nM
same,"EC50 (nM), HLA-ABC surface marker on human MoDC (FACS)",human CD40 on cells [1],0.988 nM
same,"EC50 (nM), HLA-DR surface marker on human MoDC (FACS)",human CD40 on cells [1],0.473 nM
same,binding result,rhGITR (hIgG1 Fc),no binding (tested: 20 nM)
same,binding result,rhOX40 (hIgG1 Fc),no binding (tested: 20 nM)
same,"EC50 (nM), Ramos-Blue NFkB/AP-1 reporter B cells",human CD40 on cells [2],0.0715 nM
same,"EC50 (nM), HuCD40 293 HEK NFkB c3 luciferase reporter cells",human CD40 on cells [3],0.21 nM
same,"IC50, HEK293 human CD40 NFkB Luciferase reporter assay (stability samples)",human CD40 on cells [4],0.1 to 0.2 nM
